Screen size: about 94,000 compounds; about 4,000 (4.3%) were called active. The shares of active, inactive and inconclusive entries below differ from those in the screen. The call rests on the fitted dose curve; in most records, active means well fitted inhibition curve with a large enough effect; inconclusive means small, poorly fitted or top-dose-only effect; inactive means no such curve, though single readings can be large or run the other way. A potency beside an inconclusive call is a rough fit, not a confirmed value.
Assay: Cytotoxic Profiling in NIH 3T3 Cell Line of Diverse Libraries Using Quantitative High-Throughput Screening; further: nearly all actives have a fitted effect of over 55% in size
Conditions: NIH 3T3 viability, CellTiter-Glo ATP luminescence, 48-72 h; series mostly up to 96.7 µM
Summary of the method: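 Luminescent ATP readout (CellTiter-Glo, 10 min RT) after 48 or 72 hr compound exposure of NIH 3T3 cells seeded at 400 cells/well in 1536-well format; quantitative HTS.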
Potency means the concentration at half of the fitted maximal effect; tags describe the fitted curve by direction and shape.

| SMILES | Potency |
| --- | --- |
| CC(C)CCN1CCCC(COc2ccccc2C(=O)NC2CC2)C1 (stereo not given) | inconclusive: 35.5 µM [inhibitor, partial curve, poor fit] |
| Cc1ccc(Cc2c(C)nc3c(C(=O)N4CCC(Cc5nncn5CC5CC5)CC4)cnn3c2C)cc1 | inconclusive: 44.7 µM [inhibitor, partial curve, poor fit] |
| COc1ccccc1C(=O)NC1CCN(c2cc(C(F)(F)F)nc(C)n2)CC1 | inconclusive: 17.8 µM [inhibitor, partial curve] |
| CCCS(=O)(=O)N1CC(c2nc(Cc3cccnc3)no2)C1 | inactive |
| CC(=O)N1Cc2ccccc2OC2(CCN([S+](C)(=O)[O-])CC2)C1 | inactive |
| O=C(NCc1ccc(C(F)(F)F)cc1)c1cc(-c2ccsc2)c2nncn2n1 | inconclusive: 56.2 µM [inhibitor, partial curve, poor fit] |
| CCN1C[C@H]2COc3ccccc3[C@H]2N(C(=O)COc2ccccc2)CCC1=O | inconclusive: 50.1 µM [inhibitor, partial curve, poor fit] |
| Cc1ccc(C(=O)NC2CCN(c3ccc4nnc(C)n4n3)C2)cc1 (stereo not given) | inactive |
| CC(=O)N1CCC(C(=O)N2CCCCCCNC(=O)[C@@H]3CCCC[C@@H]32)CC1 | inconclusive: 70.8 µM [inhibitor, single point] |
| O=C1[C@H]2CN(Cc3ccc(F)cc3Cl)C[C@H]2C(=O)N1CCN1CCc2ccccc2C1 | inconclusive: 56.2 µM [inhibitor, partial curve, poor fit] |
| O=C(c1ccccc1F)N1CCn2c(nn(-c3ccc([N+](=O)[O-])cc3)c2=O)C1 | inconclusive: 39.8 µM [inhibitor, partial curve, poor fit] |
| CN(C)c1cccc(-c2cc(C(=O)NCCc3ccccn3)c3c(c2)ncn3C)c1 | inconclusive: 89.1 µM [inhibitor, partial curve] |
| Cn1ccnc1C(=O)N1CCC2(CC1)CC(N(Cc1ccccc1)C1CC1)CCO2 (stereo not given) | inconclusive: 35.5 µM [inhibitor, partial curve] |
| COCCN1C[C@H]2CN(Cc3ccc(C(F)(F)F)cc3)CCN2C1=O | inactive |
| CC(C)c1nc2c(c(-c3ccc(Cl)cc3)n1)CN(C(=O)C(C)(C)C)CC2 | inconclusive: 44.7 µM [inhibitor, partial curve, poor fit] |
| COc1cccc(C(=O)N2CCc3[nH]nc(C(=O)NCCCc4ccccc4)c3C2)c1 | active: 31.6 µM |
| Cc1ccc(Cn2c(C3CCN(C(=O)c4ccccc4)CC3)n[nH]c2=O)cc1 | inconclusive: 35.5 µM [inhibitor, partial curve, poor fit] |
| O=C(Nc1ccccc1)N1CC(Oc2ccc(-c3noc(-c4ccncc4)n3)cc2)C1 | inactive |
| CC1(COc2ccccc2)COc2ccc(C(=O)NCCOc3ccccc3)cc2N1 (stereo not given) | inconclusive: 39.8 µM [inhibitor, full curve, poor fit] |
| Cn1ncc2c(C(=O)NCC(F)(F)F)cc(-c3ccccc3F)nc21 | inactive |

| SMILES | Potency |
| --- | --- |
| CN(C(=O)c1ccc2c(c1)NC(C)(COCC1CC1)CO2)c1ccccc1 (stereo not given) | inconclusive: 79.4 µM [inhibitor, partial curve] |
| Cc1cccc([S+](=O)([O-])N2CCC3(CC2)OCCN(C)C3=O)c1 | inconclusive: 56.2 µM [inhibitor, partial curve, poor fit] |
| COCCOc1ncccc1-c1noc([C@@H]2CCCN2Cc2ccc(C(=O)O)cc2)n1 | inactive |
| O=C(C1CC1)N1CCN(c2ccc3nnc(-c4ccccc4)n3n2)CC1 | inconclusive: 50.1 µM [inhibitor, partial curve, poor fit] |
| c1cncc(C2=NOC3(CCN(Cc4cccc5ccccc45)CC3)C2)c1 | inconclusive: 50.1 µM [inhibitor, partial curve, poor fit] |
| Cc1ccc(C2NC(=O)N(CC(=O)Nc3ccccc3C(C)C)C3=C2C(=O)OC3)cc1 (stereo not given) | inconclusive: 44.7 µM [inhibitor, partial curve, poor fit] |
| O=C(Cc1ccccn1)N1CCCN(c2nc3ncccc3o2)CC1 | inconclusive: 79.4 µM [inhibitor, partial curve, poor fit] |
| CCN(Cc1ccccc1)C(=O)CN1CCCc2nc(C3CC3)ncc2C1=O | inactive |
| O=C(Nc1cccn2nc(C3CCC3)nc12)c1ccc(F)cc1 | inconclusive: 50.1 µM [inhibitor, partial curve, poor fit] |
| O=C(CC1CCN(C(=O)NC2CCCCC2)C1)NCc1ccccc1 (stereo not given) | inactive |
| COc1cccc(NC(=O)[C@@H]2C[C@@H](c3ccc(F)cc3)N(CCOc3ccccc3)C2)c1 | inconclusive: 31.6 µM [inhibitor, full curve] |
| O=C(Cc1ccsc1)N1CCCCCC1c1nc(-c2ccncc2)no1 (stereo not given) | inactive |
| O=C(O)CCn1ncc2cc(OC3CCN(C(=O)C4CCCC4)CC3)ccc21 | active: 44.7 µM |
| Cc1ccc(NC(=O)C2CCc3nnc(-c4cccc(C(F)(F)F)c4)n32)cc1 (stereo not given) | inconclusive: 70.8 µM [inhibitor, single point] |
| O=C(c1ccccc1F)N1CCC2(CC1)CC(c1cccc(C(F)(F)F)c1)=NO2 | inconclusive: 35.5 µM [inhibitor, partial curve] |
| COc1ccc(-c2cc(N3CCCC(NC(=O)COc4ccccc4)C3)n[nH]2)cc1 (stereo not given) | inconclusive: 50.1 µM [inhibitor, partial curve, poor fit] |
| COc1ccc(-c2cnc3n[nH]c(-c4ccc(OC)c(F)c4)c3n2)cn1 | inconclusive: 56.2 µM [inhibitor, partial curve, poor fit] |
| COc1ncccc1-c1cc(-c2c(C)noc2C)c2cncn2c1 | inconclusive: 35.5 µM [inhibitor, partial curve, poor fit] |
| Cc1cc(C(=O)N2CCCC(CCc3c(F)cccc3F)C2)c(=O)n(C)c1C (stereo not given) | inconclusive: 56.2 µM [inhibitor, partial curve, poor fit] |
| Cc1ccc(NC(=O)Nc2ccc(C)n(CC(=O)NC3CCCC3)c2=O)cc1 | inconclusive: 44.7 µM [inhibitor, partial curve, poor fit] |

Reference: PubChem BioAssay AID1345082 (National Center for Advancing Translational Sciences (NCATS), 2018)
